The record followed here is publication PMC4336329 (PLoS ONE, 2015).

Each structure is given as a SMILES string. The campaign covered roughly 310,000 compounds. About 14,000 (4.5%) showed an effect of 50% or more. Effects have a minus sign here. Some of the results follow.
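Further: peak tail current of the secondary pulse compared with the same well before compound.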

The target of this test is human ether-à-go-go-related gene (hERG) potassium channel (human, UniProt Q12809). The test is described as follows: primary screen, population patch clamp on CHO cells stably expressing hERG.
human ether-à-go-go-related gene (hERG) potassium channel, sequence (Q12809 whole entry, looked up): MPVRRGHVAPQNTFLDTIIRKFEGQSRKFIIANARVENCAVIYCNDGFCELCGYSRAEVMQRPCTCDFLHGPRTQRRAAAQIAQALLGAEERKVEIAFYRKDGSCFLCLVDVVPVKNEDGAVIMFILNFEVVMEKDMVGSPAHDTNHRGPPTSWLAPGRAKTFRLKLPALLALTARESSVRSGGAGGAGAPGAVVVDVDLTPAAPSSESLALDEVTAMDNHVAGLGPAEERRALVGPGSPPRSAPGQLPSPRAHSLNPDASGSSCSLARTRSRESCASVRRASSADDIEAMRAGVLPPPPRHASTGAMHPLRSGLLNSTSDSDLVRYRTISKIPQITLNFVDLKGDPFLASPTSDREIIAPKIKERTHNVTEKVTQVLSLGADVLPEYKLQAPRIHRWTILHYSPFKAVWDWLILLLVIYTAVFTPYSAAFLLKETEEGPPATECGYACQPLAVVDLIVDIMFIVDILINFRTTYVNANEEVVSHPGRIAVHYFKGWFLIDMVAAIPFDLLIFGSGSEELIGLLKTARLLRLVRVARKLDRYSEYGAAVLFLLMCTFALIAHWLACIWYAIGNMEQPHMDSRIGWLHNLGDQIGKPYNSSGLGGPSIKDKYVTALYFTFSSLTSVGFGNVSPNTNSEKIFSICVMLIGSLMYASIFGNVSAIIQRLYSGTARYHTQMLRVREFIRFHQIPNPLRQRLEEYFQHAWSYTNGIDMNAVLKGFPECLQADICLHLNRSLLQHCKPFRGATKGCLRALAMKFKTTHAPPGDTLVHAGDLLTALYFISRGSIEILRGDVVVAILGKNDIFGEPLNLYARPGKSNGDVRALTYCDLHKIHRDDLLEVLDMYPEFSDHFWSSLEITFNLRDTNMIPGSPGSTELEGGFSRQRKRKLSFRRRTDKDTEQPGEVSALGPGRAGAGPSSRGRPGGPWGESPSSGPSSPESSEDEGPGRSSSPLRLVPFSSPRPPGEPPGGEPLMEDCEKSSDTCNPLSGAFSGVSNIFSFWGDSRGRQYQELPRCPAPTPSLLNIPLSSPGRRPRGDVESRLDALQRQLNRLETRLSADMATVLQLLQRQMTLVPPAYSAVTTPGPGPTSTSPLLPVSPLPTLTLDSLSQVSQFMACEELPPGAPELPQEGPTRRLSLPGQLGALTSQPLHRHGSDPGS
`O=C(Nc1ccc(O)c(C(=O)O)c1)c1ccc2c(c1)C(=O)N(CC1CCCO1)C2=O` (stereo not drawn): the “hERG current change (%, negative = inhibition) at 10uM” value is on record as 6.21%.

Turning to `O=C(CSc1nnc2c(Cl)cc(C(F)(F)F)cn12)N(Cc1ccccc1)Cc1ccccc1`, the “hERG current change (%, negative = inhibition) at 10uM” value was -28.6%.

With `Nn1c(Nc2ccc(Cl)cc2)nncc1=O`, the “hERG current change (%, negative = inhibition) at 10uM” value came out at 4.22%.

In the case of `Cc1ccc(O)c(C(=O)/C=C/c2ccc3c(c2)OCCO3)c1`, the “hERG current change (%, negative = inhibition) at 10uM” value worked out at 6.81%.

With `CCOC(=O)C1CCCCN1Cc1ccc(F)c(Br)c1` (stereo not drawn), the “hERG current change (%, negative = inhibition) at 10uM” value was 0.154%.

Consider `Cc1ccc(-n2c(=O)c3c4c(sc3n3c(=S)[nH]nc23)CCC4)cc1`, for which the “hERG current change (%, negative = inhibition) at 10uM” value stood at 21.4%.

Take `CN(CCOCCOc1ccc2ccccc2c1)Cc1ccccc1`: the “hERG current change (%, negative = inhibition) at 10uM” value was -40.2%.

As for `O=[N+]([O-])c1cccc(/C(=N/N=C/c2ccccc2Br)C23CN4CN(CN(C4)C2)C3)c1`, the “hERG current change (%, negative = inhibition) at 10uM” value is on record as -4.07%.

With `COc1ccc(C(=O)c2sc3nc(-c4ccccc4)ccc3c2N)cc1OC`, the “hERG current change (%, negative = inhibition) at 10uM” value was 18.1%.

For the compound `CC(=O)Nc1ccccc1OCC(=O)N(Cc1ccccc1)C(C)C`, the “hERG current change (%, negative = inhibition) at 10uM” value is 1.48%.

As for `CN(CCc1ccccn1)C(=O)c1cccnc1Oc1ccccc1`, the “hERG current change (%, negative = inhibition) at 10uM” value was 11.3%.

As for `CN(Cc1ccccc1)C1CCCN(C(=O)COc2ccccc2Cl)C1` (stereo not drawn), the “hERG current change (%, negative = inhibition) at 10uM” value is -40.7%.

Turning to `CCOc1cc(NC(=S)NCCCN2CCOCC2)c(OCC)cc1NC(=O)C(C)C`, the “hERG current change (%, negative = inhibition) at 10uM” value is reported as 12.5%.

For the compound `COc1ccc(N2CCN(C(c3ccccc3)c3nnnn3Cc3ccc(F)cc3)CC2)cc1` (stereo not drawn), the “hERG current change (%, negative = inhibition) at 10uM” value was found to be 0.111%.

In the case of `N#Cc1ccc(CN2CCN(C(=O)Cn3nc(C(N)=O)c4ccccc4c3=O)CC2)cc1`, the “hERG current change (%, negative = inhibition) at 10uM” value is -70%.

Take `O=C(CCn1c(=O)[nH]c2ccccc2c1=O)NCCCN1CCN(c2cccc(Cl)c2)CC1`: the “hERG current change (%, negative = inhibition) at 10uM” value is -65.4%.

On to `CC(OC(=O)Cn1nnc2ccccc21)C(=O)NC1CCCC1` (stereo not drawn), for which the “hERG current change (%, negative = inhibition) at 10uM” value amounted to 10%.

For `COc1ccccc1N1CC(C(=O)Nc2nnc(SCC(=O)N3CCCC3)s2)CC1=O` (stereo not drawn), the “hERG current change (%, negative = inhibition) at 10uM” value worked out at 2.97%.

With `CCOC(=O)NC1(C(F)(F)F)NC(=O)N(c2cccc(C(F)(F)F)c2)C1=O` (stereo not drawn), the “hERG current change (%, negative = inhibition) at 10uM” value came out at 5.01%.

Consider `O=C(O)c1ccccc1N=Nc1c(O)[nH]c(=O)[nH]c1=O`, for which the “hERG current change (%, negative = inhibition) at 10uM” value is recorded as 11.5%.

For the compound `Cc1ccsc1C(=O)C1CCCN(Cc2cnc(N3CCCC3)s2)C1` (stereo not drawn), the “hERG current change (%, negative = inhibition) at 10uM” value was -15.3%.

With `COc1ccc(CNCc2c(O)c(Cl)cc3c(C)c(C)c(=O)oc23)c(OC)c1.Cl`, the “hERG current change (%, negative = inhibition) at 10uM” value is -3.6%.

As for `CCOC(=O)COn1c(=O)c(-c2ccc(OC)cc2)[n+]([O-])c2ccccc21`, the “hERG current change (%, negative = inhibition) at 10uM” value is given as -1.13%.

`COc1cccc(C2NC(C)(C(=O)O)C3C(=O)N(C(C)C)C(=O)C23)c1O` (stereo not drawn): the “hERG current change (%, negative = inhibition) at 10uM” value is listed as -3.02%.
